Laboratory results reported in PubChem BioAssay AID1159614 (National Center for Advancing Translational Sciences (NCATS), 2016).
Screen size: about 45,000 compounds; about 65 (0.1%) were called active. Calls come from the whole dose curve; as a rule, active = well fitted activation curve with a large enough effect; inconclusive = small, poorly fitted or top-dose-only effect; inactive = no such curve, though single readings can be large or run the other way. This is one part of the list.

What follows are compounds tested against Galactocerebrosidase (Homo sapiens) (UniProt P54803) (assay: A Novel Cell-Based Assay to Identify Small Molecules for B -Galactocerebrosidase). Conditions: 145M-Twi-hGALC-G270D cells (Twitcher mouse brain line with human GALC G270D), HMU-beta-Gal fluorescence, 48 h; series mostly up to 57.5 µM; activation: at the top concentration.
UniProt P54803, sequence (P54803 whole entry, looked up): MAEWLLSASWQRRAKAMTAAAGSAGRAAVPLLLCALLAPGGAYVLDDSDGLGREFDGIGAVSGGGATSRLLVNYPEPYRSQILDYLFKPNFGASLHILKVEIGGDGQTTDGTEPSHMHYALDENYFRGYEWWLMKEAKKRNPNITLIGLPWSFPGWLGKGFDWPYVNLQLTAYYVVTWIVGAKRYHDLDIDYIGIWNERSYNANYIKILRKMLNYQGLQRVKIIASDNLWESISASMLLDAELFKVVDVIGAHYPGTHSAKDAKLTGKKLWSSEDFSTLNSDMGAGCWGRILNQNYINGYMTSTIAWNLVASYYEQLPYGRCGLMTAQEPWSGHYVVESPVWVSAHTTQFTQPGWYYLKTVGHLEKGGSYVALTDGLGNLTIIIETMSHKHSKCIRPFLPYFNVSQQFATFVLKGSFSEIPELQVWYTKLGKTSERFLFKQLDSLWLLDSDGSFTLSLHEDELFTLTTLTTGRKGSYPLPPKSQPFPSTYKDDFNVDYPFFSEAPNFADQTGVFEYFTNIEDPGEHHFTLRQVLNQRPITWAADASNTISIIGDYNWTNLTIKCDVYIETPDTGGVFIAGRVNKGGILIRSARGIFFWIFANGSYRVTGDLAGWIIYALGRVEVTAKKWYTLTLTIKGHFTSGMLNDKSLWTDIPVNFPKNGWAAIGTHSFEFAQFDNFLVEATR
In short: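 Fluorescence readout: HMU-β-gal cleavage by mutant GALC (0.1 mM final, citrate/phosphate pH 5.2 with 1 mg/mL taurocholate), stopped with carbonate/bicarbonate plus Triton X-100. Cells: murine Twitcher 145M-Twi expressing human G270D GALC; qHTS for activators.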
Note: 0% is about no effect; nearly all actives have a fitted effect of over 65% in size.

activation, inactive:
COc1cccc(OC)c1C(=O)NCCc1sc(-c2cccc(F)c2)nc1C -15.8%
COc1ccc(S(=O)(=O)N2CCC(Oc3ccc(-n4cnnn4)cc3)CC2)cc1 -5.79%
COc1cc(/C=C(\C#N)c2nc3ccc(C)cc3[nH]2)ccc1OCc1ccc(C)cc1 -16.9%
CC(N)CCCC(C)(C)O (stereo not drawn) -18.2%
CCOc1ccc2c(c1)c(=O)c(C(=O)c1ccc3c(c1)OCO3)cn2Cc1ccc(F)cc1 3.13%
Cc1nn(-c2nc(-c3ccccc3)cc(C(F)(F)F)n2)c(C)c1Cl -12.7%
CCc1nn(C(CC)C(=O)NCc2ccc(OC)c(OC)c2)c(=O)c2cc3oc(C)cc3n12 (stereo not drawn) -11.1%
COc1ccccc1N1CCN(c2ncnc3c2c(-c2ccccc2)cn3-c2cccc(Cl)c2)CC1 -12.4%
Cc1ccc(OCCSc2nc(-c3ccccc3C)nc3cc(=O)[nH]n23)cc1Cl -13.5%
COc1ccc(C(=O)Nc2ccccc2-c2nc3ccccc3s2)cc1OC -6.03%
Cc1ccc(C)c(NC(=O)CSc2nccn2-c2cccc(C)c2C)c1 -4.93%
CCc1ccc(C2C(C(=O)Nc3ccccc3OC)=C(C)Nc3c(C(=O)Nc4ccc(C)cc4)cnn32)cc1 (stereo not drawn) -12.9%
COc1cccc(CNC(=O)c2cnc3c(-c4ccc(F)cc4)c(C)nn3c2C)c1 -1.05%
CC(=O)Nc1ccc(NC(=O)c2nc(S(=O)(=O)Cc3ccc(F)cc3)ncc2Cl)cc1 -15.8%
CCN(C(=O)c1cn(-c2cccc(OC)c2)c(=O)c2ccccc12)c1ccccc1C -2.99%
COCCc1ccccn1 1.3%
CCN(CC)CCNC(=O)C1CCN(C(=O)c2cnn(-c3ccccc3)c2-n2cccc2)CC1 -11.3%
Cc1ccc(-n2c(SCc3ccccc3F)nc3[nH]ncc3c2=O)cc1Cl -16.3%
CCc1cccc(NC(=O)Cn2c(C(=O)OC)cc3sc(Cl)cc32)c1 -14.3%
CCCCOc1ccc(C2c3c(oc4ccc(C)cc4c3=O)C(=O)N2CCCN(C)C)cc1OCC (stereo not drawn) 9.21%
CC(=O)NCCNC(=O)CCCn1c(=O)[nH]c2ccsc2c1=O -1.62%
Cc1ccc(NC(=O)CSc2nc(=O)cc(N)n2-c2ccccc2)cc1 -9.46%
CCOC(=O)N1CCc2c(sc3c2C(=O)NC(c2ccc(N(C)C)cc2)N3)C1 (stereo not drawn) -14.9%
Cc1ccc2nc(NC(=O)CSc3[nH]c(=O)ncc3C)sc2c1 -21.7%
CCOC(=O)c1c(NC(=O)Cc2coc3cc(C)cc(C)c23)sc2c1CCC2 -16%
COCCN(CCOC)S(=O)(=O)c1ccc(C(=O)Nc2sc3c(c2C(=O)OC)CCN(C)C3)cc1 -22.9%
CC(=O)c1ccc(NC(=O)c2cc(C)nn2-c2ccccc2)cc1 -9.74%
CCN(CC)S(=O)(=O)c1cccc(C(=O)Nc2ccccc2C(=O)Nc2ccc(Cl)cc2)c1 -10.1%
Cc1ccc(C)c(NS(=O)(=O)c2cc3c(cc2C)n(C)c(=O)c(=O)n3C)c1 3.23%
Cc1ccc(-n2c(/C=C/c3c(C)n(C)c4ccccc34)nc3ccccc3c2=O)cc1 -12.1%
O=c1[nH]c(SCc2c(F)cccc2Cl)nc2c1CCC2 -4.46%
Cc1cccc(-n2c(C)cc(C(=O)C(=O)Nc3ccccc3F)c2C)c1C -4.72%
CCCN1CCN(CCCNC(=O)c2cc3c(=O)n(CC)c4ccccc4c3s2)CC1 5.15%
CCCCN(CCCNC(=O)c1cc(Nc2cccc(SC)c2)nc2ccccc12)Cc1ccccc1 -7.85%
CCOc1cccc(C(=O)Nc2ccc(-c3nc4ncccc4o3)cc2C)c1 -9.39%
Cc1ccc(NC(=O)c2cc(S(=O)(=O)N3CCC4(CC3)OCCO4)ccc2F)cc1Cl -11.9%
COC(=O)c1c(NC(C)=O)c2c3c(sc2n1Cc1cc(C)ccc1C)CCCC3 9.41%
CCOC(=O)c1ccccc1NC(=O)c1sc2nc3n(c(=O)c2c1C)CCCCC3 -6.73%
CN(C)S(=O)(=O)N(CC(=O)NCCSCc1c(F)cccc1Cl)c1ccccc1 -18.4%
COc1cccc(NC(=O)c2cccc3c(=O)c4c([nH]c23)CCCC4)c1 -16.3%
CCCOc1ccc(C2c3c(-c4ccccc4O)n[nH]c3C(=O)N2CCc2ccccc2)cc1OCC (stereo not drawn) -17.4%
Cc1cccc(C(=O)Nc2nnc(S(=O)(=O)N(C)Cc3ccccc3)s2)c1 -15.8%
Cc1ccc(S(=O)(=O)CC(=O)Nc2nc3c(C)cc(C)cc3s2)cc1 -15.1%
COc1ccc(C(=O)c2oc3ccccc3c2NC(=O)c2cc(=O)c3ccc(C)cc3o2)cc1Cl 3.7%
COc1ccc(-c2noc(CNC(=O)c3ccccc3Br)n2)cc1 -14.9%
CCOc1ccc(-c2cccc(NS(=O)(=O)c3ccc(F)cc3F)c2)nn1 -7.56%
Cc1ccc(S(=O)(=O)NCC(c2ccco2)N2CCOCC2)cc1 (stereo not drawn) -13.2%
COc1ccc(-c2nc3c(c(SCC(=O)N4CCCCC4)n2)Cc2cc(C)ccc2O3)cc1 -9.45%
O=S(=O)(c1cccc(Cl)c1)c1nnn2c1nc(NCc1ccc3c(c1)OCO3)c1sccc12 -6.44%
CCOc1ccc2ncc3c(-c4ccc(C)cc4)nn(-c4cccc(F)c4)c3c2c1 -8.12%
CCOc1ccc(OCC)c(NC(=O)c2cc(S(=O)(=O)N3CCc4ccccc43)cn2C)c1 -5.43%
CCc1nnc(NC(=O)c2cc(=O)c3cc(C)ccc3o2)s1 -21.5%
COc1ccccc1CNC(=O)C(=O)NCC(c1cccs1)S(=O)(=O)c1ccccc1 (stereo not drawn) 11.8%
CC(=O)c1ccc(N2CCN(S(=O)(=O)c3cc4[nH]c(=O)c(=O)[nH]c4cc3C)CC2)cc1 -8.36%
O=C(O)c1ccccc1S -18.2%
Cc1ccc(C)c(N2CCN(C(=O)Cn3cnc4onc(-c5ccc(F)cc5)c4c3=O)CC2)c1 -26%
CCOC(=O)CSc1nc(-c2ccc(OCC)cc2)cc(C(F)(F)F)c1C#N -1.95%
CC(=O)Nc1ccc(/C=C/c2noc(-c3ccccc3O)n2)cc1 18.5%
Cc1ccc2oc(=O)c3cc(C(=O)NCCCOC(C)C)sc3c2c1 13.8%
O=C(Nc1sc2c(c1C(=O)NCc1ccco1)CCCC2)c1cc(=O)c2cc(Cl)ccc2o1 -15.7%
CCOc1cc(C(=O)Nc2cc3c(cc2N2CCCC2)n(C)c(=O)c(=O)n3C)cc(OCC)c1OCC -10.3%
Cc1cc(C)c2nc(C)cc(Nc3cccc(C(=O)O)c3)c2c1 -1.93%
Cc1nnc(N2CCN(C(=O)NCCC(C)C)CC2)c2nn(-c3ccc(Cl)cc3)c(C)c12 -15.7%
